In the supplement of paper PMC3334620:
In all, about 33,000 sequences were measured (“E-score (-0.5 to 0.5)”: median about -0.043, highest 2% from about 0.37 on). The list shows a part of the results.

target: T1, Upc2 (UniProt Q12151); assay: PBM E-score (8-mer binding enrichment) (E-score (-0.5 to 0.5)); higher = stronger / more preferred TF binding; most listed sequences are background and not binding sites; conditions: protein concentration: 200 nM; construct: GST-full length
T1 sequence: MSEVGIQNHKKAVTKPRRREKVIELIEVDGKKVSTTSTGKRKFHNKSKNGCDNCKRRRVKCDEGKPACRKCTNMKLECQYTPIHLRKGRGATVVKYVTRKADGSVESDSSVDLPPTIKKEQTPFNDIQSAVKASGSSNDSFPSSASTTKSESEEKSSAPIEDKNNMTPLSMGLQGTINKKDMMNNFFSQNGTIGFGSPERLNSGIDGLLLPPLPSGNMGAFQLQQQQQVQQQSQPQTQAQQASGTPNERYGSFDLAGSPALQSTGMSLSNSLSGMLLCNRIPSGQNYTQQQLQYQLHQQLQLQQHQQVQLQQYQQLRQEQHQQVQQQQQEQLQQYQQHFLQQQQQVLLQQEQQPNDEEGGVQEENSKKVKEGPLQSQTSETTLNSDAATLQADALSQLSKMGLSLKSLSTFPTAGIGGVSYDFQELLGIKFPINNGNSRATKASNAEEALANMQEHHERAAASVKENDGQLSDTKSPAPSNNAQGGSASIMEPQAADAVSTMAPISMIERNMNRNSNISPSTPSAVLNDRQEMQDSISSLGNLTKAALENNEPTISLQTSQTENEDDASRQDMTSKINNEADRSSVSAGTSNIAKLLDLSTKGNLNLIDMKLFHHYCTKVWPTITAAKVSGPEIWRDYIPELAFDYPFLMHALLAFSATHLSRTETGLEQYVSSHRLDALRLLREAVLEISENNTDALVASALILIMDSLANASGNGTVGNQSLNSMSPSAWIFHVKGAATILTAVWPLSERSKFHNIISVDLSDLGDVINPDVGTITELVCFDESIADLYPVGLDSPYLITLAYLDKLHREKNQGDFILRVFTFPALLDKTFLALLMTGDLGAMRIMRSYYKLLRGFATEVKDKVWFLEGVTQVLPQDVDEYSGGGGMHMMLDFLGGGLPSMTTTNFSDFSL
Summary of the method: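 Using PURExpress in vitro transcription/translation, GST-tagged yeast transcription factors were made in full-length or DNA-binding-domain form. These were applied at about 100-200 nM to double-stranded universal all-10-mer Agilent arrays, and bound protein was detected with fluorescent anti-GST. Scans were normalised with masliner before the Universal PBM Analysis Suite assigned E-scores to ungapped eight-base words pooled with their reverse complements.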

Sequence | PBM E-score
GAAATGCA | -0.0271
GCGCTGCC | -0.205
CAATCGAG | 0.0643
ACCATGTC | 0.0657
CGGTTTTA | 0.108
CATTCCCC | -0.191
GCGTGACA | -0.121
CTGCTATA | -0.025
CCTAAGCA | -0.124
CTAAGACA | 0.0291
GACAAATC | 0.00339
GAAAAAAA | 0.116
CCGGTTTC | -0.143
AGGCCCTG | -0.142
TCTGCTCA | -0.179
CAAAAGGG | -0.209
GAAAAGAC | -0.0791
CGCCTTAC | 0.155
ATAGATAC | 0.142
GTACACGA | 0.336
CCGTATGA | 0.392
TTACTGAA | 0.182
AGCAGTCC | -0.299
CGCGCTGA | -0.165
GACATTCA | -0.0852

Sequence | PBM E-score
CACTTATC | 0.0599
CTGGGCAA | -0.038
ACTGGTAG | -0.242
CAATTTAA | 0.0893
ACGACTTC | 0.272
GGCGTACA | 0.269
ATATTCAC | -0.0879
CCACGTCC | -0.248
CGGTTCTC | -0.00834
CCGCTACG | 0.362
GAGGCACC | -0.15
ACCTGTTG | -0.055
CAAGGGGC | -0.307
AAGACGCG | 0.00366
ACATCCGA | 0.102
TAATGACA | 0.167
ACACAATG | -0.0402
AGTAACTG | -0.147
ACGGACAA | 0.0585
AGCAAACT | 0.151
CGTGTTGC | -0.00376
CGATCGCG | 0.199
ACTTTTTC | 0.0345
CAGCCTCA | -0.0411
AAAATAGC | -0.14

Sequence | PBM E-score
GGTGTTAC | -0.204
AACACGAC | 0.0603
AATCTCAA | 0.0819
CCACCTCA | -0.156
ACTTAGCA | -0.0953
GAGCTTCC | 0.139
CACCGCAA | 0.206
GCTCCTCC | -0.307
AGACAAAA | -0.149
ATGCTGGA | -0.0287
GCACTCGC | -0.0642
GCAGCGGA | 0.0273
AAGTGACA | 0.0296
GCTAGCAC | -0.0935
TACCCATA | -0.0492
GGGTGTGA | -0.258
CCTCCGCA | -0.198
CATCCATA | 0.0881
CACAGGAA | -0.14
ACAATCGG | -0.0781
GCATTGAC | -0.0811
AGTAACGG | 0.0726
GGGATCAC | -0.223
CGGCCCTC | -0.0152
CCGATAGC | -0.115

Sequence | PBM E-score
AGGAGTAT | -0.214
AGATAGCC | -0.124
CGCAGACC | 0.0191
ATCTTCTG | -0.0958
CCCGACGC | -0.193
AAGAAGAC | -0.272
CAGAATTC | -0.03
AACCCACA | 0.0629
CCCGATCA | 0.0861
CACAGTGG | -0.145
GGACCGAC | 0.126
AACATGGA | -0.2
GGGATAGA | -0.232
GATGTGCC | -0.178
GACCTGGC | -0.271
CGTTTACC | 0.449
GATCCAAC | 0.0134
CTTACAAC | -0.00608
CTGAGCAG | -0.0274
AACGCCGC | 0.11
CCCTATAG | -0.194
GTAGTAAC | 0.075
CACAAGGA | -0.208
ACTGGGGG | -0.219
AATTGCGG | -0.0537

Sequence | PBM E-score
GTTCGAGA | 0.0543
ATAAAGCC | -0.107
AACTTCCT | -0.207
CAGTAGAA | -0.165
CGGGTGAC | -0.0722
GCGACGCC | 0.143
AGAATATG | -0.0459
GCCGTCAC | -0.016
CTATTCTA | -0.107
GCGTGCGA | 0.143
GGAGGAAA | -0.052
GTGCTGCA | -0.253
CCCGGAGA | -0.0247
CGTGAAAA | 0.111
GCTGACGA | -0.0868
ATCAGGGC | 0.0213
CTTCATCA | -0.0638
CGATAGGC | -0.00928
AGGGACTA | -0.242
ATGGTGAC | -0.141
CAGAACTC | -0.2
AATGATGG | -0.00188
AATTCCCG | -0.0145
CAAGAATG | -0.233
GATAACAC | -0.037

Sequence | PBM E-score
AGGTATCC | -0.00567
ACATACAC | 0.121
CAATGTTA | -0.0331
CGGGACAC | -0.0693
AAAACTGG | -0.105
ACCTCGCC | -0.0273
ACAGCACT | -0.0782
TATACATA | 0.114
CGAAGCAC | -0.0203
GGCGACCA | -0.311
GGCTGTTA | -0.0733
GTAGAACA | -0.0692
AACTAATT | -0.0886
CGTCGTTA | 0.376
GCTTTCTA | -0.00187
CACACAAG | -0.133
GCTTTAGA | 0.0153
AGGATATA | -0.185
CCAGTGTA | 0.0133
ACAGCATG | -0.00586
AATAGCCT | -0.081
TCAGTTAA | -0.071
ACTGCATG | -0.0391
CCATCTGA | -0.0848
CAAGCAAA | -0.0667

Sequence | PBM E-score
TTCAAAAA | -0.0757
TAAGCTTA | -0.0247
CACACATC | -0.24
GTCGGACA | 0.131
TGGAGACA | -0.154
TAGCCTAA | -0.0607
GTAGGGAC | -0.192
ACTGGTGC | -0.11
GAGGCGGC | -0.0405
CATATGAG | -0.0883
GGCAGGAA | -0.24
GTACGGTA | 0.365
ACCAAGAC | -0.0288
ATCCGAAA | 0.166
CTCTTCGA | 0.0167
CCGCGAGG | -0.00963
AGTCTCCC | -0.212
AGCGGACG | 0.0725
CGCTGAAA | -0.0593
AGCTATAT | 0.00328
TCAATTCA | -0.00862
GCCTCCTA | -0.322
